Screen size: about 310,000 compounds; about 2,200 (0.71%) showed an effect of 50% or more. The effect is printed as a negative number. The list shows a part of the results.
Each compound was assayed against human ether-à-go-go-related gene (hERG) potassium channel (human, UniProt Q12809) (assay: primary screen, population patch clamp on CHO cells stably expressing hERG).
Chain of human ether-à-go-go-related gene (hERG) potassium channel (Q12809 whole entry, looked up): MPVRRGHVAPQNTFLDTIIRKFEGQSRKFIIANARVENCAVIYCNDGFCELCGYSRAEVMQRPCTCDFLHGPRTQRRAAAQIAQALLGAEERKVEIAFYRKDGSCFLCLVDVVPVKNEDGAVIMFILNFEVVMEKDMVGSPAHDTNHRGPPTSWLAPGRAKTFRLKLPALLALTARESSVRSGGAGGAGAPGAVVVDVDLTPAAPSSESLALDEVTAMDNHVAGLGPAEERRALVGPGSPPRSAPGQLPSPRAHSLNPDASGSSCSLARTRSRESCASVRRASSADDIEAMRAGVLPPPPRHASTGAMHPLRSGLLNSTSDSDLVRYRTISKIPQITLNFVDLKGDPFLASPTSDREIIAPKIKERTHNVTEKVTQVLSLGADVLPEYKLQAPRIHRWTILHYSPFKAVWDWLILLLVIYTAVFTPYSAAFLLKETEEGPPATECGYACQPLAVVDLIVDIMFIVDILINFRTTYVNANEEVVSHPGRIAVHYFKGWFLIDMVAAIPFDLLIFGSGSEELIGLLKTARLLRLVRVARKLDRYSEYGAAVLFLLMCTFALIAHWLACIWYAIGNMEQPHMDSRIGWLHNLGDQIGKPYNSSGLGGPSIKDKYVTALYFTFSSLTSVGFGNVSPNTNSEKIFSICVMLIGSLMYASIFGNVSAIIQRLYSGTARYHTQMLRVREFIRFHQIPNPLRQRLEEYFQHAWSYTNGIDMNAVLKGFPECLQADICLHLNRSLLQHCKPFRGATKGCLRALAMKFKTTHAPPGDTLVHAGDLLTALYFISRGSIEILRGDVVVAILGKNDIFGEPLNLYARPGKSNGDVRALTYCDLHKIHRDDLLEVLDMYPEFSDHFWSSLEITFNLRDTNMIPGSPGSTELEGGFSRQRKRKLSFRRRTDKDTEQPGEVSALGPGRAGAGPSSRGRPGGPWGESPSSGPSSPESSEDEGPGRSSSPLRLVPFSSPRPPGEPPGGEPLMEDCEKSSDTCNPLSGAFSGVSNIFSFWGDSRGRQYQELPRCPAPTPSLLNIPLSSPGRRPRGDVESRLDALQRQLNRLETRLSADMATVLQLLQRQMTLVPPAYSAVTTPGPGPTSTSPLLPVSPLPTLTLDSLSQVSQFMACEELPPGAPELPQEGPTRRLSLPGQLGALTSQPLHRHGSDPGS

SMILES	hERG current change (%, negative = inhibition) at 1uM
COc1ccc(N(CC(=O)NCCc2ccccc2)C(=O)c2csnn2)cc1	4%
CS(=O)(=O)N1CCN(c2ccccc2NC(=O)c2cccs2)CC1	-21.6%
COc1ccc(CCNC(=O)CNC(=O)c2ccc(Br)o2)cc1OC	0.286%
Cc1ccc(NC(=O)c2ccc(CSc3nnnn3C)cc2)cc1	3.97%
CCOC(=O)C1=C(C)NC(C)=C(C(=O)OCCNC(=O)c2cccnc2)C1c1cccc([N+](=O)[O-])c1 (stereo not shown)	1.96%
COC(=O)CCCC1=CC2=C(c3ccccc3)C(=O)C(C)(OC(=O)C3CCCC3)C(=O)C2=CN1CC(C)C (stereo not shown)	10.8%
Cc1cc(NCCC(C)C)n2nc(C)c(-c3ccccc3)c2n1	13.3%
Cc1ccc(C(=O)C2=C(O)C(=O)N(Cc3cccnc3)C2c2ccc(Cl)c(Cl)c2)o1 (stereo not shown)	12.7%
COc1ccc(NC(=O)CC2C(=O)N(C)C(=S)N2Cc2ccncc2)cc1 (stereo not shown)	9.17%
O=C1NC(=O)/C(=C/C(=O)N2CCOCC2)S1	8.72%
NC(=O)c1ccc(NC(=O)c2cccc(Oc3ccccc3)c2)cc1	12.5%
CN(CC1CCOCC1)C(=O)CC1C(=O)NCCN1Cc1cccc(Oc2ccccc2)c1 (stereo not shown)	10.8%
CCOC(=O)Cc1ccc(NC(=O)c2cccc([N+](=O)[O-])c2)cc1	5.35%
CC1CN(c2nc3c(c(=O)n(C)c(=O)n3C)n2Cc2c(F)cccc2Cl)CC(C)O1 (stereo not shown)	-0.473%
CCOC(=O)C1CCCN(C(=O)COc2ccc(S(=O)(=O)N(CC)c3ccccc3)cc2)C1 (stereo not shown)	-1.42%
O=C(O)CC1CCC(=C(Cl)Cl)C1 (stereo not shown)	1.96%
CC(C)(C)c1cc(C(=O)N2CCc3ccccc3C2)ccn1	12.1%
Cc1ccccc1C(=O)Nc1ccccc1N1CCN(C(=O)c2ccccc2)CC1	-3.72%
CC1CCC(NC(=O)C2CCN(S(=O)(=O)c3ccc4nc5c(c(C(=O)O)c4c3)CC(C)CC5)CC2)CC1 (stereo not shown)	16.8%
Cl.NCCc1c[nH]c2ccc(F)cc12	19.6%
CCOC(=O)c1nnn(CC(=O)Nc2cccc(F)c2)c1C(=O)OCC	9.32%
O=C(O)C(=O)O.O=[N+]([O-])c1ccc(OCCN2CCCCCC2)cc1	-74.5%

SMILES	hERG current change (%, negative = inhibition) at 1uM
Cc1n[nH]c(=O)nc1N1CCc2ccccc2C1	20.4%
COc1ccc(C2NC(C(=O)O)CS2)cc1COCC(F)(F)F (stereo not shown)	7.06%
CC(NC(=O)COc1ccc(-c2ccccc2)cc1)C1CCCO1 (stereo not shown)	11%
CC(=O)N(C)c1ccc(N2CCOCC2)c2c1C(=O)c1ccccc1C2=O	7.39%
N#Cc1c(-c2ccco2)ccn(Cc2cccc(F)c2)c1=O	13.2%
CSc1cccc(CN2CCN(CCC(C)C)C(CCO)C2)c1 (stereo not shown)	1.82%
O=C(NC1CCCCC1)C(c1ccco1)N(Cc1ccco1)C(=O)c1ccco1 (stereo not shown)	5.25%
CCOc1ccccc1N1CCN(Cc2cccc(OC)c2O)CC1	-5.21%
CCOC(=O)c1ccc(NC(=O)CNS(=O)(=O)c2ccccc2)cc1	11.3%
COc1ccc(CN(C2CCCC2)S(=O)(=O)c2ccc(-n3cnnn3)c(OC)c2)cc1OC	-4.65%
Cc1c(C(=O)Nc2ccc(F)cc2)nnn1-c1cccc(C(F)(F)F)c1	8.01%
CC(=O)Nc1cccc(/C(C)=N/NC(=O)c2c(-c3ccccc3Cl)noc2C)c1	-2.52%
Cn1cccc1/C=C1\SC(=O)N(CC(=O)Nc2ccc(Cl)cc2)C1=O	23.3%
N#Cc1cc2nc([O-])c([O-])nc2cc1[N+](=O)[O-].[Na+]	12.4%
CC1CCN(S(=O)(=O)c2ccc(S(=O)(=O)N3CCC4(CC3)OCCO4)cc2)CC1	7.01%
CC(=O)N1N=C(c2cccs2)CC1c1ccco1 (stereo not shown)	8.93%
CC(C)CCNC(=O)[C@H](CSCc1ccccc1)N1Cc2ccccc2C1=O	-8.45%
COc1ccc(C)cc1C(=O)CCC(=O)Nc1ccccc1N1CCOCC1	11.1%
CC1(C)Cc2ccccc2C(=C(C#N)C#N)N1	1.8%
CSc1c(CC(=O)Nc2ccc(F)cc2)n(Cc2ccccc2)c2ccccc12	4.61%
COc1ccc(CNC(=O)C2Cc3ccccc3CN2C(=O)c2ccco2)cc1 (stereo not shown)	-9.69%
COc1ccc(Cl)cc1S(=O)(=O)N1CCN(c2ccc(F)cc2)CC1	5.81%

SMILES	hERG current change (%, negative = inhibition) at 1uM
CCc1nnc(NC(=O)c2ccc(-c3ccccc3Cl)o2)s1	5.17%
Cc1ccc(OCC(=O)Nc2ccc3c(c2)OCO3)c(C)c1	8.38%
CCCNc1nc(C)cc(-c2cc(-c3ccc(Cl)cc3)on2)n1	15.2%
CNCCCOc1cc(C)cc(C)c1C.O=C(O)C(=O)O	11.8%
CC1CCN(CC(=O)Nc2ccccc2C(=O)c2ccccc2)CC1	4.66%
Nc1nnc(SCn2nnc3ccccc3c2=O)s1	8.05%
C=CCn1cccc(/C=C/C(=O)c2ccc(C(C)(C)C)cc2)c1=S	6.52%
COc1ccc(-c2cc(C(=O)Nc3ccc(C(N)=O)cc3)c3ccccc3n2)cc1OC	3.06%
CCOP(=O)(OCC)C(O)c1cccnc1 (stereo not shown)	-4.2%
CC(C)c1nc(SCC(=O)Nc2nc3c(s2)CCCC3)c2ccccc2n1	-2.91%
COc1ccc(OC)c(/C=N/N=C2\SCC(=O)N2Cc2ccco2)c1	9.96%
CCCCN(C)CCn1c(=S)[nH]c2ncccc2c1=O	-15.8%
Cc1ccc(OCc2nc(-c3ccccn3)no2)cc1	12.5%
O=C(CNC(=O)c1ccc(Br)o1)NCc1ccc(F)cc1	12%
Cc1ccc(/C(N)=N/OC(=O)C23CC4CC(CC(C4)C2)C3)cc1	6.33%
Cc1ccc(-n2c3c(cc(C(=O)NCC(=O)c4ccccc4)c2=O)C(=O)CCC3)cc1	12.7%
O=C1N/C(=C\c2ccc(O)cc2)C(O)=C1C=NCc1ccccc1	14.1%
COc1ccc([C@@H]2C[C@H]3CN(c4ccccc4)C(=O)[C@]34CCCN24)c(OC)c1OC	-4.79%
COc1ccc(-c2cc(=Nc3ccc(C(=O)O)cc3)c3cc(C)ccc3o2)cc1	7.75%
Cc1ccc(C(=O)Nc2ccccc2C(=O)NCc2ccccc2)cc1	7.4%
COc1ccc(C2CC(C)=NN2C=O)cc1OC (stereo not shown)	15.3%
CCOc1ccc(N2C(=O)CC(N(O)c3ccccc3)C2=O)cc1 (stereo not shown)	17.9%

SMILES	hERG current change (%, negative = inhibition) at 1uM
COC(=O)c1[nH]c2ccccc2c1NC(=O)CN1CC(C)OC(C)C1 (stereo not shown)	5.62%
CC(C)(C)c1ccc(/C=C/C(=O)NCCCN2CCOCC2)cc1	-3.05%
C1CCc2c(nc3nnnn3c2NCC2CC2)C1	5.38%
N#Cc1cccc2c1-c1ccccc1/C2=N/NC(N)=O	11.5%
Cc1ccc(C(=O)O)cc1NC(=O)Nc1ccc2c(c1)OCO2	17.1%
CCCCC[C@H]1CN(CCCC)C(=O)[C@@H]1CC(=O)NCc1ccc(OC)cc1	-43%
CC(C)CCNC(=O)C(c1ccc(O)cc1)N(Cc1ccco1)C(=O)CCC(=O)Nc1nccs1 (stereo not shown)	2.87%
CCN(CC)c1ccc(/C=N/n2c(C)cc(C)cc2=O)cc1	-1.61%
CC1CN(C(=O)COC(=O)c2ccc(F)cc2Cl)CC(C)O1 (stereo not shown)	10.4%
Cc1cc(C)n(-c2nc3ccccc3n3cnnc23)n1	1.8%
O=C(c1ccc(NC2=NC3CS(=O)(=O)CC3S2)cc1)N1CCN(c2ccc(F)cc2)CC1 (stereo not shown)	8.65%
O=C(NCc1cccc(F)c1)c1ccc2nc(N3CCOCC3)sc2c1	-0.967%
CCCCN(C(=O)c1cccc(S(=O)(=O)N2CCCCC2)c1)C1CCS(=O)(=O)C1 (stereo not shown)	-0.881%
CCCC(=O)NCCCc1nc2ccccc2n1C(C)C	7.39%
Cc1ccc(N2CC(O)=C(c3nc4ccccc4c(=O)[nH]3)C2=N)cc1C	5.62%
Cc1cc(NC(=O)CN2C(=O)[C@@H]3[C@H](C2=O)[C@@H]2C[C@H]3C(Br)C2Br)no1 (stereo partly shown)	13%
CC(CNC(=O)CN1C(=O)C(=O)N(C2CCCC2)C1=O)c1ccccc1 (stereo not shown)	0.769%
O=C(NCc1ccncc1)C12CC3CC(CC(Cl)(C3)C1)C2	13.1%
CCOC(=O)C1CCCN(C(=O)c2cc3cc(OC)c(OC)cc3[nH]2)C1 (stereo not shown)	10.9%
CC(=O)Nc1ccc(S(=O)(=O)Nc2nc3ccccc3nc2Nc2ccc(S(N)(=O)=O)cc2)cc1	-2.28%
O=C(NC(=S)Nc1nc(-c2ccccc2)cs1)c1cccs1	16%
COc1cccc(-c2nc(-c3ccc(NC(=O)c4cccs4)cc3)no2)c1	7.71%

Source: paper PMC4336329 (PLoS ONE, 2015)
